Laboratory results published in PubChem BioAssay AID588855 (National Center for Advancing Translational Sciences (NCATS), 2011).
Hit rate of the full screen: of about 410,000 compounds, about 5,000 (1.2%) were called active. Inconclusive means that the source gave no clear call. Such entries were picked first, then a sample of the others. The call rests on the fitted dose curve; in most records, active means well fitted inhibition curve with a large enough effect; inconclusive means small, poorly fitted or top-dose-only effect; inactive means no such curve, though single readings can be large or run the other way. A potency beside an inconclusive call is a rough fit, not a confirmed value.

assay: qHTS for Inhibitors of TGF-b; settings: HepG2 CAGA-GFP TGF-b/SMAD3 reporter, GFP fluorescence, 18 h, TGF-beta stimulated, 500 pg/mL final; series mostly up to 46.1 µM; further: nearly all actives have a fitted effect of over 65% in size
Method in brief: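 Read-out: total well GFP (ex488/em500-530) summed from mean per-cell fluorescence. Cells: HEPG2 CAGA-GFP, 1% FBS DMEM, 18 h at 37 degrees C with 500 pg/mL final TGF-beta. Unstimulated wells served as the full-inhibition control; stimulated DMSO wells = 0%.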
Potency means the concentration at half of the fitted maximal effect; tags describe the fitted curve by direction and shape.

Q: With `O=C(c1ccc2ccccc2c1)C1CCCN(C(=O)c2cnccn2)C1` (stereo unspecified) as the compound, how does the Potency read?
A: inactive

Q: Which Potency does the source give for `CCOC(=O)c1c(-c2ccccc2)csc1NC(=O)CSc1nc(N)cc(N)n1` here?
A: inconclusive: 35.5 µM [inhibitor, single point]

Q: For `O=C(NC1CC1(c1ccccc1)c1ccccc1)c1ccccc1` (stereo unspecified), which Potency is on record?
A: inactive

Q: With `Cc1nc(N)ncc1Sc1ccc(Cl)cc1` as the compound, how does the Potency read?
A: inconclusive: 12.6 µM [inhibitor, single point]

Q: Which Potency does the source give for `O=C1C(=C2CCCCC2)SC(=S)N1Cc1ccco1` here?
A: inconclusive: 22.4 µM [inhibitor, single point]

Q: With `COc1cccc(Cn2nnc3c(=O)[nH]c(C4CCCN(C(=O)c5ccccc5Cl)C4)nc32)c1` (stereo unspecified) as the compound, how does the Potency read?
A: inactive

Q: For `CCN(CC)CCNC(=O)c1[nH]c2ccc(OCc3ccccc3)cc2c1C`, which Potency is on record?
A: inconclusive: 22.4 µM [inhibitor, partial curve, poor fit]

Q: For `Cc1cccc(N2CCN(C3=NC(=O)C(Cc4ccccc4)S3)CC2)c1` (stereo unspecified), which Potency is on record?
A: inactive

Q: Which Potency does the source give for `CC1CC(C)CN(C(=O)Cn2c(-c3nonc3N)nc3ccccc32)C1` (stereo unspecified) here?
A: inactive

Q: Which Potency does the source give for `CCOc1cc(S(=O)(=O)N2CCC(Cc3ccccc3)CC2)c(OCC)cc1-n1cnnn1` here?
A: inconclusive: 0.447 µM [inhibitor, full curve]

Q: For `C[C@@H](CN1C2=NC[C@H](Cc3ccc(O)cc3)N2C[C@H]1Cc1ccc(O)cc1)NC(=O)CCC1CCCCC1`, which Potency is on record?
A: inactive

Q: Which Potency does the source give for `COc1ccc(CNc2nc(-c3ccc(Cl)cc3)cc(C(F)(F)F)n2)cc1` here?
A: inconclusive: 17.8 µM [inhibitor, single point]

Q: With `O=C(CCCCCN1C(=O)CCC1=O)Nc1ncn[nH]1` as the compound, how does the Potency read?
A: inconclusive: 35.5 µM [inhibitor, single point]

Q: For `COCCNC(=O)Cn1nc(-c2ccc(C)cc2)c2ccccc2c1=O`, which Potency is on record?
A: inactive

Q: Which Potency does the source give for `COc1ccc(-c2c3c(nc4sc(C(=O)Nc5ccccc5)c(N)c24)CCC3)cc1` here?
A: inconclusive: 2.82 µM [inhibitor, single point]

Q: Which Potency does the source give for `CCOC(=O)N1CCC(NC(=O)c2cc3c(-c4ccccc4F)nn(C)c3s2)CC1` here?
A: inactive

Q: With `C=CCn1c(CSCc2ccc(C)cc2)nnc1SCC(=O)NCc1ccccc1` as the compound, how does the Potency read?
A: inactive

Q: With `Cc1c(C(=O)NCc2ccc3c(c2)OCO3)sc(=O)n1Cc1ccc(S(=O)(=O)N(C)C)cc1` as the compound, how does the Potency read?
A: inactive

Q: With `COc1ccccc1NC(=O)Nc1nc(CC(=O)Nc2ccc(F)c(F)c2)cs1` as the compound, how does the Potency read?
A: inconclusive: 31.6 µM [inhibitor, single point]

Q: For `Cc1ccc(C2CC(C(F)F)n3ncc(C(=O)Nc4c(C)nn(Cc5c(F)cccc5Cl)c4C)c3N2)cc1` (stereo unspecified), which Potency is on record?
A: inconclusive: 35.5 µM [inhibitor, partial curve, poor fit]

Q: With `CCC(C)NC(=O)CCCc1ccccc1` (stereo unspecified) as the compound, how does the Potency read?
A: inconclusive: 0.355 µM [inhibitor, full curve]

Q: Which Potency does the source give for `CCN(CC)S(=O)(=O)c1cc(NS(=O)(=O)c2ccccc2)ccc1C` here?
A: inactive

Q: Which Potency does the source give for `CCCCn1c(CCCNC(=O)c2cccc(C)c2)nc2ccccc21` here?
A: inconclusive: 7.94 µM [inhibitor, partial curve, poor fit]

Q: For `COCC(=O)Nc1ccc2c(c1)[C@@H]1C[C@H](CC(=O)OC)O[C@@H](CO)[C@@H]1O2`, which Potency is on record?
A: inactive

Q: For `Cc1ccc2nc(CN3CCN(S(=O)(=O)c4ccc(C(C)C)cc4)CC3)oc2c1`, which Potency is on record?
A: inconclusive: 20 µM [inhibitor, partial curve, poor fit]

Q: With `CN(C)CCCn1c(-c2ccc(Cl)cc2)csc1=Nc1ccccc1` as the compound, how does the Potency read?
A: inconclusive: 31.6 µM [inhibitor, single point]

Q: For `CN(C)c1ccc(/C=C2\N=C(c3ccc(Cl)c([N+](=O)[O-])c3)NC2=O)cc1`, which Potency is on record?
A: inactive

Q: With `CCN1C=CC2=C(C#N)C(N)C(C#N)(C#N)C(c3ccccc3C(F)(F)F)C2C1` (stereo unspecified) as the compound, how does the Potency read?
A: inactive

Q: For `O=c1c2ccccc2nc(-c2ccccc2)n1O`, which Potency is on record?
A: inactive

Q: For `CS(=O)(=O)c1ccc(Cl)c(NC(=O)CN2CCN(S(=O)(=O)/C=C/c3ccccc3)CC2)c1`, which Potency is on record?
A: inconclusive: 31.6 µM [inhibitor, single point]

Q: With `O=C(NCc1ccccn1)c1ccc([N+](=O)[O-])cc1` as the compound, how does the Potency read?
A: inactive

Q: With `Cn1nc(C(F)(F)F)c(C#N)c1N1CCN(c2ccc(F)cc2)CC1` as the compound, how does the Potency read?
A: inactive

Q: Which Potency does the source give for `Cc1nc(CN2CCN(Cc3nc(C(c4ccccc4)c4ccccc4)no3)CC2)cs1` here?
A: inactive

Q: Which Potency does the source give for `O=C(O)c1ccccc1NC(=O)c1cc2ccccc2oc1=O` here?
A: inactive

Q: For `Cc1ccc(C(=O)NNC(=O)C2CCN(c3nc(C)cc(C)n3)CC2)cc1`, which Potency is on record?
A: inconclusive: 12.6 µM [inhibitor, single point]

Q: For `C/C(=N\NC(=O)c1ccc(CSc2nncn2C)cc1)c1ccc(Cl)cc1`, which Potency is on record?
A: inconclusive: 22.4 µM [inhibitor, partial curve, poor fit]

Q: Which Potency does the source give for `[O-]c1n[n+](-c2ccc(Cl)cc2)cc2ccccc12` here?
A: inconclusive: 3.16 µM [inhibitor, single point]

Q: With `C[C@H](CO)N1C[C@H](C)[C@@H](CN(C)C(=O)Nc2ccccc2)Oc2ccc(NC(=O)C3CCCCC3)cc2C1=O` as the compound, how does the Potency read?
A: inconclusive: 5.62 µM [inhibitor, single point]

Q: Which Potency does the source give for `COc1ccc(OC)c(NC(=O)C(=O)NNC(=O)C23CC4CC(CC(C4)C2)C3)c1` here?
A: inconclusive: 3.98 µM [inhibitor, single point]

Q: Which Potency does the source give for `CC(C)(C)c1ccc(C(=O)N2CCCC(c3nc4c(nnn4Cc4cccc(F)c4)c(=O)[nH]3)C2)cc1` (stereo unspecified) here?
A: inconclusive: 28.2 µM [inhibitor, single point]

Q: Which Potency does the source give for `CC(C)C(Cl)=NOC(=O)Nc1ccc(S(N)(=O)=O)cc1` here?
A: inconclusive: 0.891 µM [inhibitor, full curve, poor fit]

Q: Which Potency does the source give for `CS(=O)(=O)N(Cc1ccc(F)cc1)Cc1nc2ccccc2c(=O)[nH]1` here?
A: inactive

Q: Which Potency does the source give for `Cc1cccc(NC(=S)NC2CCCC2)n1` here?
A: inconclusive: 11.2 µM [inhibitor, partial curve, poor fit]

Q: With `Cc1ccccc1N1CC(O)(c2cccs2)[N+]2=C1CCCC2` (stereo unspecified) as the compound, how does the Potency read?
A: inactive

Q: Which Potency does the source give for `CCCN(CCC)C(=O)CC(c1ccccc1)c1cc(C)ccc1O` (stereo unspecified) here?
A: inconclusive: 17.8 µM [inhibitor, partial curve, poor fit]

Q: Which Potency does the source give for `Cc1cc(Oc2ccccc2)nc(NCc2ccccc2)n1` here?
A: inactive
